From the supplement of paper PMC3334620
In all, about 33,000 sequences were measured (“E-score (-0.5 to 0.5)”: median about -0.012, highest 2% from about 0.29 on). This is one part of the list.

Molecular target: T1, Ybr033w (UniProt P38073)
T1 sequence: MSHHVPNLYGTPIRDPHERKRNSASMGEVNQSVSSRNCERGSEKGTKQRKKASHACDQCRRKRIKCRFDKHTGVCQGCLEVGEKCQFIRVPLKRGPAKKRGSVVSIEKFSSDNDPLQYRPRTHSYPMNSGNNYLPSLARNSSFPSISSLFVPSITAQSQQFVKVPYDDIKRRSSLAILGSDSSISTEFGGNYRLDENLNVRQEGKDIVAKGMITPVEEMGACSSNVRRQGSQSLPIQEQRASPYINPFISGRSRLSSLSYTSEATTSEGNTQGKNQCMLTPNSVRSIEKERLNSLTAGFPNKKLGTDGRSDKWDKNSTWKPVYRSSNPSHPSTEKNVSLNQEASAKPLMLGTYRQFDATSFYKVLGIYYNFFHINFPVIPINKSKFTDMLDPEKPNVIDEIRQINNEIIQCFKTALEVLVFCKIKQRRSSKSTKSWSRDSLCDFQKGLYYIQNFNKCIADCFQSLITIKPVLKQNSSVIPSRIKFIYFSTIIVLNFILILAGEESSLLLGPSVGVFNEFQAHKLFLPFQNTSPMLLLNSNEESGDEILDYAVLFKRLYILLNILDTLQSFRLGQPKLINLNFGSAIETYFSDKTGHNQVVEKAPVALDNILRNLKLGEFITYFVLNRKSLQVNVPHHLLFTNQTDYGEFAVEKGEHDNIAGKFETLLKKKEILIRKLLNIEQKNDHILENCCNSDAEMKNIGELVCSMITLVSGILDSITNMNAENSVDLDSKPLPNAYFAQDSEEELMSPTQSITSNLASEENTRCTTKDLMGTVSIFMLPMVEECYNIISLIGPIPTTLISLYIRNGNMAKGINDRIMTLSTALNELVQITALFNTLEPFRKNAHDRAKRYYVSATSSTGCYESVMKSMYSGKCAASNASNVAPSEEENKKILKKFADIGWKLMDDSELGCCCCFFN
Assay: PBM E-score (8-mer binding enrichment) (E-score (-0.5 to 0.5)); higher = stronger / more preferred TF binding; most listed sequences are background and not binding sites
Details: protein concentration: 200 nM; construct: GST-full length
How it was run: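 PURExpress in vitro transcription/translation supplied GST-tagged yeast transcription factors, either full-length or DNA-binding domain. Applied at about 100-200 nM to universal all-10-mer Agilent arrays double-stranded by primer extension, the bound protein was detected with fluorescent anti-GST. E-scores, modified Wilcoxon-Mann-Whitney statistics, were given by the Universal PBM Analysis Suite to ungapped eight-base words pooled with their reverse complements after masliner normalisation.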

Row | Sequence | PBM E-score
1 | AAAAGGCA | 0.233
2 | CAACCACA | 0.0032
3 | AAAGGATT | 0.0765
4 | CTGACAAA | 0.203
5 | CCTGATTC | 0.0636
6 | ATTAAGAC | 0.159
7 | CGCATAAA | 0.297
8 | ATATCACG | -0.00718
9 | GCACTCAA | -0.151
10 | ACCCCGGA | -0.0459
11 | TGTACACA | 0.112
12 | ATACCGTG | -0.0804
13 | CAATCCCG | 0.0381
14 | GAAGCACA | 0.123
15 | GCACGTGA | -0.207
16 | AACTTAAC | 0.265
17 | ATTTCTAC | -0.0311
18 | ACTACTTG | 0.0703
19 | CCCCGGGG | -0.398
20 | AAGAATCA | 0.224
21 | CATTAACG | 0.0841
22 | GGTTGAAC | -0.0228
23 | ACCTGGGC | -0.362
24 | ATCCGCTA | 0.0632
25 | CATTCAGA | 0.0377

Row | Sequence | PBM E-score
26 | ACACATGT | 0.0925
27 | GCGTGTCC | -0.115
28 | AACTGTGG | 0.118
29 | ATTATCGC | 0.319
30 | CCAATTCC | 0.0727
31 | AGGGTATG | 0.0472
32 | ATGGACAA | 0.164
33 | AGGCAGGC | -0.244
34 | AGAAAGGA | 0.0496
35 | ATTTAACA | 0.183
36 | ACCAGAAC | 0.0756
37 | AATCAAAT | 0.175
38 | ATACTCAT | 0.0796
39 | GAGAGGAA | 0.00832
40 | CGCGTCAG | -0.205
41 | ACCGGGGA | -0.176
42 | ACGTTTGG | -0.0501
43 | ACACTGCA | -0.203
44 | TGAGATCA | 0.0986
45 | AAGACGAC | 0.0588
46 | AGCCAACC | 0.027
47 | CTTCTTCC | 0.0741
48 | CTAGAGTC | -0.172
49 | CGAGTGCG | 0.0474
50 | AGAGACTC | 0.0372

Row | Sequence | PBM E-score
51 | CTAAAGCA | 0.0926
52 | AAGGCATC | -0.0488
53 | GTGTAAAC | -0.00524
54 | ATCAGGTG | -0.135
55 | ATGTATCG | 0.175
56 | TAGAACGA | 0.134
57 | ACTCCGCC | -0.0727
58 | ACTCACCC | -0.175
59 | ACGACAGG | -0.133
60 | AATATGTA | 0.249
61 | AGGTTCGC | -0.203
62 | TGAACGAA | -0.0416
63 | CAAGTGAA | 0.0901
64 | ATACACCC | 0.125
65 | CATCCCTC | -0.114
66 | ATCATTGG | 0.156
67 | GGAGTCCA | -0.162
68 | TAATTAAA | 0.276
69 | TAAATGCA | 0.132
70 | TAATCGCA | 0.209
71 | AGTCAGAG | -0.172
72 | AGCGTTGC | -0.0711
73 | AAGAGAAG | 0.0159
74 | AGTGTTGC | 0.0949
75 | CAACGGCG | -0.16

Row | Sequence | PBM E-score
76 | CGGCAAAC | 0.0411
77 | ACATCGCT | -0.101
78 | GGACTGTA | -0.21
79 | ACTCGGGG | -0.203
80 | AGGTTCCA | -0.0608
81 | AGGCAGAT | 0.0307
82 | CCTCCAGA | -0.116
83 | AATGCGGT | -0.0179
84 | GGACCACA | -0.00774
85 | CGTTTTAG | -0.00628
86 | ACGAAGTA | 0.124
87 | GCTCAGGA | 0.0718
88 | AAAGTGTT | 0.119
89 | AGTCCGCC | -0.112
90 | CACGTACA | -0.0136
91 | ATAGTAAG | 0.142
92 | GACTTCGA | -0.0795
93 | CAGCTTCG | 0.0788
94 | GCGAGTTA | -0.0299
95 | GATTTAGA | 0.221
96 | CGCAACCG | -0.145
97 | AAGCGTAC | -0.226
98 | AATCTATA | 0.297
99 | ATAGGATG | 0.149
100 | AGCGAGGC | -0.225

Row | Sequence | PBM E-score
101 | CGGGGTGA | 0.0413
102 | ACTGTGCA | 0.031
103 | TGAGGCCA | -0.143
104 | CCTTTTTA | 0.161
105 | CGAGGTTA | 0.0654
106 | CGTAAATC | -0.103
107 | CATTGGAC | -0.141
108 | AGCCTACG | 0.00613
109 | AAGCTTAC | 0.0655
110 | TCGGTGAA | -0.0318
111 | TAACATGA | 0.0898
112 | GAGGGAGA | -0.213
113 | CGCCCTGC | -0.184
114 | AAAACCTC | 0.181
115 | CAGTGCTC | -0.00589
116 | ATTAAGCA | -0.0125
117 | GAGGATCA | 0.0676
118 | CGAGCAGC | -0.0631
119 | TGCGGCCA | -0.124
120 | AATTTAGT | 0.241
121 | AGATGGAA | 0.112
122 | GTGGTTGA | 0.0246
123 | AAGGCGTA | -0.0227
124 | CGGTTCGC | -0.0495
125 | CCAAATGG | 0.0448

Row | Sequence | PBM E-score
126 | ATAGGCTG | -0.063
127 | ACTATGTC | 0.0491
128 | AGCCTTGC | -0.133
129 | AGTCAGGG | -0.304
130 | ACGTAGGG | -0.243
131 | GCTTCGAC | -0.199
132 | CGTAGAAA | 0.0466
133 | GAAACTTA | 0.332
134 | CAGTCGCC | -0.151
135 | TGAACCCA | 0.117
136 | AGATTCAT | 0.101
137 | AGGAAGCA | -0.179
138 | AGTTTTTA | 0.181
139 | CAAGTGGA | -0.0181
140 | CCTGAGGA | -0.0313
141 | CGTACTAC | 0.00519
142 | CACAACAA | 0.174
143 | AATCTGGT | 0.0844
144 | AGCCGGAT | 0.133
145 | AAACTTTA | 0.219
146 | AAGTATTA | 0.146
147 | GCTCAGCA | -0.0236
148 | TAGTCCGA | -0.0149
149 | GACCAAAC | -0.17
150 | ACACCCGC | 0.0959

Row | Sequence | PBM E-score
151 | AATAGGTG | 0.0376
152 | ACCCCTAC | -0.242
153 | AAAAACAT | 0.21
154 | AGCCCTAT | -0.163
155 | CTTACACC | -0.2
156 | CTTGGACA | 0.0117
157 | ATCGTCCG | -0.0138
158 | AAATTCAT | 0.227
159 | CACCCGTA | -0.0339
160 | ACTTCATG | -0.118
161 | CCGCGAAC | -0.0246
162 | AACAGTTA | 0.204
163 | AGAGGAGC | -0.168
164 | AATCCATG | 0.115
165 | ACGCGCCG | -0.0849
166 | GAGGGAAA | 0.0515
167 | GCTACGCC | -0.239
168 | CTCCCATA | -0.157
169 | ATCTCTTG | -0.037
170 | AGGGCACT | -0.316
171 | CCGTAACC | 0.107
172 | ATTGCAGA | 0.151
